# According to paper PMC12136788:
# The other results are listed elsewhere or left out.
# B1: chr15:78834838:78834839:+_ENSG00000041357_ENST00000044462|hu_mus|FALSE|FALSE (ssRNA)
# RNA: GGGAGUUCUACAGUCCGACGAUCAUCAAGAAGCUUGUGGAUGUUGCGCCUCUCCGCUGCAAGCAAAACUCCAUCAUUGGCUAAAAUCCCCAAACAGGUGCCUGCAUGUCCAAUGGCUUCCAUGGCAUACUCCACUUGGUAUAACAACAGAGGAUUGAGCAUCA
# B2: chr1:93299114:93299115:+_ENSG00000122406_ENST00000370321|hu_hu|FALSE|FALSE (ssRNA)
# RNA: GGGAGUUCUACAGUCCGACGAUCUUGUAUCACCAAGCGUUUCCGAGCAUAAUAAUCAGUUUUACCCUCUCGUCGUCUUCUAAAUUUCACUUGGUAUCUCUUAAAGUAGGCCUUAUUCUUAACAACUUUAACAAACCCCAUCCUCAACAGAGGAUUGAGCAUCA
# B3: chr5:60455605:60455606:-_ENSG00000188725_ENST00000339020|hu_hu|FALSE|FALSE (ssRNA)
# RNA: GGGAGUUCUACAGUCCGACGAUCAUUUACAAUAACUGUCAAUAGAAACCUAUAAACUUCUACACCCACGCCUAAAAGUUACUAUAGUAUUGAGGUCAGAACUAACAUGAUUCUUCCAUUUGGUCAAAUUUCAUUUACUAAAUCCAACAGAGGAUUGAGCAUCA
# B4: chr12:82822756:82822757:-_ENSMUSG00000042724_ENSMUST00000035987|mus_hu|FALSE|FALSE (ssRNA)
# RNA: GGGAGUUCUACAGUCCGACGAUCGGCUGAGGAGAGGGAGCAGCAGACAGAUUUGGCUGAGUGACUCUGCAGGGUCACUCUAAAGGCAAGGAAGACUGUGGAGGGUGGGGGACAUGCAUGCACCCCUUCCUCCCCUACACAGCCCAACAGAGGAUUGAGCAUCA
# B5: chr16:57198444:57198445:-_ENSMUSG00000022749_ENSMUST00000023431|mus_hu|FALSE|FALSE (ssRNA)
# RNA: GGGAGUUCUACAGUCCGACGAUCCCUAAAAGAAGCCGGUGUUUUGCUGCAAUAAUACUGAGCCAGAGAGAAAAGGUCUUCUAUAUCUUCUAUAUUCAGACUGGAUGGAGUAUUUUCCAAGAACUUGAUAACUUCUUCUUUGCUCAACAGAGGAUUGAGCAUCA
# B6: chr16:45382771:45382772:-_ENSMUSG00000022661_ENSMUST00000163230|mus_mus|mus_mus_mus_hu_True|48_48 (ssRNA)
# RNA: GGGAGUUCUACAGUCCGACGAUCCUGGGUCAUGUUAUAAGACAAAUGGACAGGGAGGGCAUGCUUCUCAAAAAAUGUGAGCUAUUGACUAAGACUAACAAUAUUUAUCUAGCUAUAAAAAUAAGUUAAAUGAAUAAGUUAAGACAACAGAGGAUUGAGCAUCA
# B7: 25585956_25589799_587_3pUTR_ENSG00000170558_ENST00000399380|human|control|control (ssRNA)
# RNA: GGGAGUUCUACAGUCCGACGAUCAAUGAAACCGGGCUAUCUGCUCGCGAUCCAGGGGCUUUGUCACCGACAGCUGACCCGAGAUGGGGUUGAUAAUGAAGAUACCAGUUGGAGGCUGGUCAGCUCCUGGCCCAGUUACACUGUCAACAGAGGAUUGAGCAUCA
# B8: chr7:135612270:135612271:-_ENSG00000105887_ENST00000393085|hu_mus|hu_hu_hu_mus_False|8_88 (ssRNA)
# RNA: GGGAGUUCUACAGUCCGACGAUCGUUUUUUUCUGAGAUGUUAAAUAUUCAGUGGAGGGAAAACAAAACUUAACCUUUUAUUAAUGCGUGUUGUACCAAAAGCAGACAUUUUAGCUUCAUUUAUUCACUCAAAAUAUCAUUAAGCAACAGAGGAUUGAGCAUCA
# B9: chr7:23164667:23164668:+_ENSG00000122550_ENST00000322275|hu_mus|motif|central (ssRNA)
# RNA: GGGAGUUCUACAGUCCGACGAUCCACAGGUUCAAUCUGGUACUGAUUUGCUGCAUCUAACAAAGACUGAACAUUGUUGCGGUUCACAGAAAUUCUAGCAGUAUAAGCAAAUUCCACCAGUUGUUCAAUAAUAUCAGGUUCAGCCAACAGAGGAUUGAGCAUCA
# B10: 14041772_14041892_1692_ncRNA_ENSMUSG00000068036_ENSMUST00000124922|mouse|control|control (ssRNA)
# RNA: GGGAGUUCUACAGUCCGACGAUCUCCUGACAUUGGAUCUACAUCACUUUACUAAAUGUUAAGUUCUGAGACACCUAAGUUUUACUGUCACCCAUGAGCUCCCACUCUUCUCAGAUGUCUCUGCUCAUUCCUAUAUGAAUGCUACAACAGAGGAUUGAGCAUCA
# B11: chr19:41288841:41288842:-_ENSMUSG00000025016_ENSMUST00000025989|mus_mus|FALSE|FALSE (ssRNA)
# RNA: GGGAGUUCUACAGUCCGACGAUCUAAAUCUCCAAAUGUUUAAUAAAAACAAGCAUCUUCUCCAUUUAACACUUCGCUUGCUAACUGUACAGUAGAUUGUAUUAUAGAGAGUGCACCUCUACUUUCAUACUGUAUCUUCUUUGGCAACAGAGGAUUGAGCAUCA
# B12: 70776874_70777083_1516_CDS_ENSG00000147162_ENST00000373719|human|control|control (ssRNA)
# RNA: GGGAGUUCUACAGUCCGACGAUCGCGGUAAGAAGCUAUGGCUUCUGGAAUAUUCCCUGAAUCCUUAUGAAUGGAAGCCAGAUUGCUAUGUGCAUCUGCAAAUGCAGGAUUAAUUUGGAUGGCACGCGUAUAACACUGCAAGGCCAACAGAGGAUUGAGCAUCA
# B13: chr17:80203902:80203903:-_ENSG00000141551_ENST00000269361|hu_hu|FALSE|FALSE (ssRNA)
# RNA: GGGAGUUCUACAGUCCGACGAUCAGUGCUGCCUUCCGAUGGGAGACGAGCAGCUACUUGCCGUGGUGUUCGAAAGGAAUGCUAUUCUGUGAGGUGGACAUGCGAGAGGUAUCUUGUCGGCCUGUGAGGUCGGACGAGGAGAUGCAACAGAGGAUUGAGCAUCA
# B14: chr3:125216745:125216746:-_ENSG00000114520_ENST00000251775|hu_mus|FALSE|FALSE (ssRNA)
# RNA: GGGAGUUCUACAGUCCGACGAUCGAAGAUUUUGUCUCUACAAAGGACAGGAUGUGAAGCAACCCUCAAGAGGAAGUUUUCUAAGCCCACGCGUCGUCUCUCCACAAAGUCUGGGUCCAUGUUGUCAGCAGAGAGUUUAUGCCACAACAGAGGAUUGAGCAUCA
# Target: T1, UNK ZnF1-3 (human, UniProt Q9C0B0 31-174)
# T1 sequence: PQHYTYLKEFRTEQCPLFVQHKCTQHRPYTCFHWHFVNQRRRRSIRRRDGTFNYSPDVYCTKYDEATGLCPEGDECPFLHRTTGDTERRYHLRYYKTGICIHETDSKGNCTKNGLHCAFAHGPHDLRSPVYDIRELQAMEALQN
# Test: nsRBNS (natural sequence RNA bind-n-seq); RBNS binding buffer (assumed for nsRBNS): 25 mM Tris pH 7.5, 150 mM KCl, 3 mM MgCl2, 0.01% Triton X-100, 500 ug/ml BSA, 20 U/ml SUPERase-In, 4 C; UNK is unkempt and MSI1 is Musashi-1; names of the RNAs are library labels; protein concentration not given here; high values mean tight binding
row,Binder,binding signal [enrichment R]
1,B1,0.935
2,B2,1.28
3,B3,0.993
4,B4,0.841
5,B5,1.07
6,B6,2.86
7,B7,0.713
8,B8,0.835
9,B9,1.56
10,B10,0.662
11,B11,0.866
12,B12,1.16
13,B13,1.06
14,B14,1.42
